Some of the results follow. Further columns of the screen follow, without active or inactive calls. The list favours compounds with an active or inconclusive main result.

This assay in a line: qHTS Assay for Lipid Storage Modulators (AID 1519). The note with it: Drosophila S3 cells, BODIPY lipid droplet/cell ratio, laser cytometry; measured here: lipid channel max response; cells loaded with oleic acid. An outline of the steps: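 Cells seeded at 5,000 per well were treated with compounds over a concentration series and loaded with oleic acid (400 uM, as added). Lipid droplet fluorescence (488 nm excitation, 500-530 nm channel) was read by laser-scanning cytometry and normalized to 20 uM Triacsin C.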
For `O=C(Nc1ccccc1)[C@@]12C[C@@H]1/C(=N/O)c1ccccc1O2`, the max response was determined as 110%. For `N#Cc1cccc(-c2nccc(NCc3ccccc3)n2)c1`, the max response came to 24.7%.

On to `COCCn1c(=O)c(-c2ccc(OC)cc2)nc2cnc(Nc3ccccc3)nc21`, for which the max response was 31.1%. `CCNc1ncc2nc(CCc3ccccc3)c(=O)n(C3CC3)c2n1`: the max response stood at 17.9%. For `Cc1nc2cnc(N(C)C)nc2n(CCc2ccccc2)c1=O`, the max response turned out to be 26.6%. On to `COc1ncc2nc(-c3ccc(F)cc3)c(=O)n(CCC#N)c2n1`, for which the max response worked out at 17.2%. `COc1ccc2[nH]cc(CCNc3ccnc(-c4cccnc4)n3)c2c1`: the max response worked out at 18.9%.

On to `COc1cc(C)c2c(=O)cc(-c3ccccc3)oc2c1`, for which the max response is 38.7%. As for `Cc1ccc2oc(-c3ccccc3)c(O)c(=O)c2c1`, the max response was determined as 102%. Regarding `COc1ccc2c(c1OC)C(Cc1ccccc1)N1CCc3cc4c(cc3C1C2)OCO4` (configuration not stated), the max response is -21.1%. `c1cn(-c2ccnc(-c3ccc4c(c3)OCO4)n2)cn1`: the max response is 33.7%. Take `COc1ccc2[nH]c(-c3ccccc3)c(CCNC(C)=O)c2c1`: the max response is 135%. Turning to `CCNc1ncc2nc(CCc3ccccc3)c(=O)n(-c3ccccc3)c2n1`, the max response came to 31.3%. For `COc1ccc(-c2nc3cnc(OC)nc3n(C3CC3)c2=O)cc1`, the max response amounted to 26.4%.

As to `c1ccc2c(NCCN3CCOCC3)nc(-c3ccoc3)nc2c1`, the max response is 43.8%.

In the case of `O=C(O)CC/C=C\CC[C@H]1[C@@H](N2CCCCC2)[C@@H](O)C[C@@H]1OCc1ccc(-c2ccccc2)cc1`, the max response is 104%. Consider `C[C@H]1C=C2C=C[C@H](C)[C@H](CC[C@@H]3C[C@@H](O)CC(=O)O3)[C@H]2[C@@H](OC(=O)[C@@H](C)CCO)C1`, for which the max response turned out to be 39%.

The values above are taken from PubChem BioAssay (NCATS).
